According to patent US20110091470A1, “ANTI-FLT3 ANTIBODIES” (IMCLONE LLC, priority 2008, published 2011):

Biological target: ITD-mutant FLT3 expressed on BaF3-ITD cells
Assay: cell-based or functional assay

Chain of ITD-mutant FLT3 expressed on BaF3-ITD cells (chain, as listed by the source mutant limits assumed, form in doubt): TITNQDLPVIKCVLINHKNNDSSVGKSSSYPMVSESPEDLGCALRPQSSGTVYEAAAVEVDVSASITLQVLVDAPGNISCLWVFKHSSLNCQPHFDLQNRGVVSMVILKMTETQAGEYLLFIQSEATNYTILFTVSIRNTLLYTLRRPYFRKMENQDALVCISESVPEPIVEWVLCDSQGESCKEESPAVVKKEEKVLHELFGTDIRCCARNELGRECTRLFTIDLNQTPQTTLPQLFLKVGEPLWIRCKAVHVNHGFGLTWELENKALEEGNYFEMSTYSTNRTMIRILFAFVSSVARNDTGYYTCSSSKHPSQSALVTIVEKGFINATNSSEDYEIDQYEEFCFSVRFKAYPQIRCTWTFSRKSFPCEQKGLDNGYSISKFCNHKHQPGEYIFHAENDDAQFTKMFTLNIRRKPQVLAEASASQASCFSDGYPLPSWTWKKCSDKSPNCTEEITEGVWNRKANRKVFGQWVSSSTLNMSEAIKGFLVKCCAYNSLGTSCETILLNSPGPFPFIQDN

% Inhibition of FL-independent proliferation of BaF3-ITD cells at 1.5 nM: 0.5%
% Inhibition of FL-independent proliferation of BaF3-ITD cells at 3 nM: 0.5%
% Inhibition of FL-independent proliferation of BaF3-ITD cells at 6 nM: 9.6%
% Inhibition of FL-independent proliferation of BaF3-ITD cells at 13 nM: 13%
% Inhibition of FL-independent proliferation of BaF3-ITD cells at 25 nM: 23.3%
% Inhibition of FL-independent proliferation of BaF3-ITD cells at 50 nM: 28.6%
% Inhibition of FL-independent proliferation of BaF3-ITD cells at 100 nM: 29.2%
Inhibition of AKT Phosphorylation (IC50), BaF3-ITD cells, FL-independent: 0.1 nM
Inhibition of FLT3 Phosphorylation (IC50), BaF3-ITD cells, FL-independent: 4 nM
Inhibition of MAPK Phosphorylation (IC50), BaF3-ITD cells: 0.1 nM
Inhibition of Stat5 Phosphorylation (IC50), BaF3-ITD cells, FL-independent: 4 nM
B1: recombinant human monoclonal antibody EB10 (antibody, human IgG1, kappa)
heavy: EVQLVQSGAEVKKPGASVKVSCKASGYTFTSYYMHWVRQAPGQGLEWMGIINPSGGSTSYAQKFQGRVTMTRDTSTSTVYMELSSLRSEDTAVYYCARGVGAHDAFDIWGQGTTVTVSSASTKGPSVFPLAPSSKSTSGGTAALGCLVKDYFPEPVTVSWNSGALTSGVHTFPAVLQSSGLYSLSSVVTVPSSSLGTQTYICNVNHKPSNTKVDKRV[letters of human IgG1 Fc omitted]
light: DVVMTQSPLSLPVTPGEPASISCRSSQSLLHSNGNNYLDWYLQKPGQSPQLLIYLGSNRASGVPDRFSGSGSDTDFTLQISRVEAEDVGVYYCMQGTHPAISFGQGTRLEIKRTVAAPSVFIFPPSDEQLKSGTASVVCLLNNFYPREAKVQWKVDNALQSGNSQESVTEQDSKDSTYSLSSTLTLSKADYEKHKVYACEVTHQGLSSPVTKSFNRGEC
